# Some of the results follow.
# Molecular target: T1, MBP-FoxP1dN (Mus musculus, UniProt P58462 326-579)
# T1 sequence: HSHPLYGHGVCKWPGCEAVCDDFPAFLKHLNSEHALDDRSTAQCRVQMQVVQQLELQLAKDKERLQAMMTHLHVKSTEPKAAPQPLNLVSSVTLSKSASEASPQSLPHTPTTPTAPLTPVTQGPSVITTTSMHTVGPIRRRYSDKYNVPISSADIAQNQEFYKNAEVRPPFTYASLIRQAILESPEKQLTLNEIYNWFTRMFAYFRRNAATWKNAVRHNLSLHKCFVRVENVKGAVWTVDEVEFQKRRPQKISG
# Test: PD-seq (MBP pull-down with sequencing); 20 mM Tris-HCl pH 7.5, 100 mM NaCl, 1.5 mM MgCl2, 0.4 uM protein, 0.1 uM dsDNA library, 30 min, room temperature, amylose pull-down; high values mean tight binding
# Conditions: protein: recombinant; tags: His6-MBP; chain copies: 2; dsDNA, one strand shown
# In short: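 A fragment of mouse FoxP3 or FoxP1 without its N-terminus, carrying a His6-MBP tag and produced in E. coli, was combined at 0.4 µM with a 0.1 µM degenerate double-stranded DNA library filled in with Klenow. The mixture sat for 30 min at room temperature in Tris pH 7.5 buffer containing NaCl and MgCl2. Protein–DNA complexes were captured on amylose resin, washed three times, and the DNA was freed with proteinase K, barcoded by PCR and sequenced on Illumina. Binding is expressed as reads-per-million enrichment of pull-down over input, with replicates pooled.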
row,Sequence,binding signal
1,GATGATTGTTCTCCCAGCTGATGAATTCGCAATCTCGAGTAAACAAATTTTCCTAATCTTTCTGTTCAAGCGCCATCTAC,0.94 RPM ratio (pull-down/input)
2,GATGATTGTTCTCCCAGCTGATGAATTGCCTTCATCGAGTAAACAAATTTTCCTAATCTTTCTGTTCAAGCGCCATCTAC,1.01 RPM ratio (pull-down/input)
3,GATGATTGTTCTCCCAGCTGATGAATTTTGCCCATCGAGTAAACAAATTTTCCTAATCTTTCTGTTCAAGCGCCATCTAC,0.919 RPM ratio (pull-down/input)
4,GATGATTGTTCTCCCAGCTGATGAATTAAGACATTCGAGTAAACAAATTTTCCTAATCTTTCTGTTCAAGCGCCATCTAC,0.975 RPM ratio (pull-down/input)
5,GATGATTGTTCTCCCAGCTGATGAATTTGGTGGATCGAGTAAACAAATTTTCCTAATCTTTCTGTTCAAGCGCCATCTAC,0.88 RPM ratio (pull-down/input)
6,GATGATTGTTCTCCCAGCTGATGAATTAATTCTGTCGAGTAAACAAATTTTCCTAATCTTTCTGTTCAAGCGCCATCTAC,0.921 RPM ratio (pull-down/input)
7,GATGATTGTTCTCCCAGCTGATGAATTCTCAGTGTCGAGTAAACAAATTTTCCTAATCTTTCTGTTCAAGCGCCATCTAC,0.897 RPM ratio (pull-down/input)
8,GATGATTGTTCTCCCAGCTGATGAATTGCGCGCCTCGAGTAAACAAATTTTCCTAATCTTTCTGTTCAAGCGCCATCTAC,1.08 RPM ratio (pull-down/input)
9,GATGATTGTTCTCCCAGCTGATGAATTCTTTGTATCGAGTAAACAAATTTTCCTAATCTTTCTGTTCAAGCGCCATCTAC,1.21 RPM ratio (pull-down/input)
10,GATGATTGTTCTCCCAGCTGATGAATTGTCTCCATCGAGTAAACAAATTTTCCTAATCTTTCTGTTCAAGCGCCATCTAC,1.11 RPM ratio (pull-down/input)
11,GATGATTGTTCTCCCAGCTGATGAATTTGGCTGGTCGAGTAAACAAATTTTCCTAATCTTTCTGTTCAAGCGCCATCTAC,0.811 RPM ratio (pull-down/input)
12,GATGATTGTTCTCCCAGCTGATGAATTAGGCTCTTCGAGTAAACAAATTTTCCTAATCTTTCTGTTCAAGCGCCATCTAC,0.827 RPM ratio (pull-down/input)
13,GATGATTGTTCTCCCAGCTGATGAATTATTTCTTTCGAGTAAACAAATTTTCCTAATCTTTCTGTTCAAGCGCCATCTAC,1.17 RPM ratio (pull-down/input)
14,GATGATTGTTCTCCCAGCTGATGAATTCTACGCTTCGAGTAAACAAATTTTCCTAATCTTTCTGTTCAAGCGCCATCTAC,0.86 RPM ratio (pull-down/input)
15,GATGATTGTTCTCCCAGCTGATGAATTATACTGTTCGAGTAAACAAATTTTCCTAATCTTTCTGTTCAAGCGCCATCTAC,1.01 RPM ratio (pull-down/input)
16,GATGATTGTTCTCCCAGCTGATGAATTAATTTCCTCGAGTAAACAAATTTTCCTAATCTTTCTGTTCAAGCGCCATCTAC,0.884 RPM ratio (pull-down/input)

row,Sequence,binding signal
1,GATGATTGTTCTCCCAGCTGATGAATTACATCAATCGAGTAAACAAATTTTCCTAATCTTTCTGTTCAAGCGCCATCTAC,1.33 RPM ratio (pull-down/input)
2,GATGATTGTTCTCCCAGCTGATGAATTCGAGCACTCGAGTAAACAAATTTTCCTAATCTTTCTGTTCAAGCGCCATCTAC,0.796 RPM ratio (pull-down/input)
3,GATGATTGTTCTCCCAGCTGATGAATTCCCCGTCTCGAGTAAACAAATTTTCCTAATCTTTCTGTTCAAGCGCCATCTAC,0.798 RPM ratio (pull-down/input)
4,GATGATTGTTCTCCCAGCTGATGAATTACCCTGTTCGAGTAAACAAATTTTCCTAATCTTTCTGTTCAAGCGCCATCTAC,0.947 RPM ratio (pull-down/input)
5,GATGATTGTTCTCCCAGCTGATGAATTATTTGCCTCGAGTAAACAAATTTTCCTAATCTTTCTGTTCAAGCGCCATCTAC,1.52 RPM ratio (pull-down/input)
6,GATGATTGTTCTCCCAGCTGATGAATTCTATAACTCGAGTAAACAAATTTTCCTAATCTTTCTGTTCAAGCGCCATCTAC,0.885 RPM ratio (pull-down/input)
7,GATGATTGTTCTCCCAGCTGATGAATTGTTCTCTTCGAGTAAACAAATTTTCCTAATCTTTCTGTTCAAGCGCCATCTAC,1.26 RPM ratio (pull-down/input)
8,GATGATTGTTCTCCCAGCTGATGAATTGGGTCCCTCGAGTAAACAAATTTTCCTAATCTTTCTGTTCAAGCGCCATCTAC,0.768 RPM ratio (pull-down/input)
9,GATGATTGTTCTCCCAGCTGATGAATTTATACACTCGAGTAAACAAATTTTCCTAATCTTTCTGTTCAAGCGCCATCTAC,1.16 RPM ratio (pull-down/input)
10,GATGATTGTTCTCCCAGCTGATGAATTGGACTTCTCGAGTAAACAAATTTTCCTAATCTTTCTGTTCAAGCGCCATCTAC,0.731 RPM ratio (pull-down/input)
11,GATGATTGTTCTCCCAGCTGATGAATTCTACGCATCGAGTAAACAAATTTTCCTAATCTTTCTGTTCAAGCGCCATCTAC,1.07 RPM ratio (pull-down/input)
12,GATGATTGTTCTCCCAGCTGATGAATTGAACAGGTCGAGTAAACAAATTTTCCTAATCTTTCTGTTCAAGCGCCATCTAC,0.784 RPM ratio (pull-down/input)
13,GATGATTGTTCTCCCAGCTGATGAATTTTACGCATCGAGTAAACAAATTTTCCTAATCTTTCTGTTCAAGCGCCATCTAC,1.07 RPM ratio (pull-down/input)
14,GATGATTGTTCTCCCAGCTGATGAATTTGTAAGATCGAGTAAACAAATTTTCCTAATCTTTCTGTTCAAGCGCCATCTAC,1.09 RPM ratio (pull-down/input)
15,GATGATTGTTCTCCCAGCTGATGAATTAATTCAGTCGAGTAAACAAATTTTCCTAATCTTTCTGTTCAAGCGCCATCTAC,0.936 RPM ratio (pull-down/input)
16,GATGATTGTTCTCCCAGCTGATGAATTACGGACCTCGAGTAAACAAATTTTCCTAATCTTTCTGTTCAAGCGCCATCTAC,0.838 RPM ratio (pull-down/input)

# From PMC12820563, “FoxP3 forms a head-to-head dimer in vivo and stabilizes its multimerization on adjacent microsatellites”
